Test results taken from PubChem BioAssay AID2546 (National Center for Advancing Translational Sciences (NCATS), 2010).
The campaign covered roughly 310,000 compounds. About 11,000 (3.5%) were called active. Inconclusive means that the source gave no clear call. Such entries were picked first, then a sample of the others. Calls come from the whole dose curve; as a rule, active = well fitted inhibition curve with a large enough effect; inconclusive = small, poorly fitted or top-dose-only effect, or effect the other way; inactive = flat fitted curve, though single readings scatter. Potencies of inconclusive entries are left out as doubtful fits.

experiment: VP16 counterscreen qHTS for inhibitors of ROR gamma transcriptional activity; settings: Drosophila S2 Gal4-VP16 UAS-luciferase, luminescence, 20 h; series mostly up to 53.6 µM;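 note: Gal4-VP16 expression switched on by copper sulfate through the metallothionein promoter; nearly all actives have a fitted effect of over 50% in size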
Potency is the fitted concentration of half-maximal effect; tags give direction and shape of the fitted curve.

Compound	Potency
COc1cc2c3nnc(-c4ccc(F)cc4)c-3cn(Cc3ccccc3F)c2cc1OC	active: 5.01 µM
CCC(CC)NC(=O)c1ccc(NS(=O)(=O)c2ccc3[nH]c(=O)[nH]c3c2)cc1	inconclusive [inhibitor, partial curve]
O=c1c2ccccc2ncn1-c1ccc([N+](=O)[O-])cc1[N+](=O)[O-]	inconclusive [inhibitor, partial curve, poor fit]
COc1ccc(-c2cc3ccc(OCC(C)=O)cc3oc2=O)cc1OC	inactive
Cc1c(Cl)cccc1NC(=S)N1CCCN(Cc2ccc(F)cc2)C1	inconclusive [inhibitor, single point]
CC12CCC(C/C1=N\N=C1\NC(=O)/C(=C\c3ccc(Cl)cc3)S1)C2(C)C (centres undefined)	active: 10 µM
O=C(Nc1nnc(S(=O)(=O)N2CCN(c3ccc(F)cc3)CC2)s1)c1ccccc1	inactive
COC(=O)c1ccccc1NC(=O)C1CC(c2ccccc2O)=NO1 (centres undefined)	inconclusive [inhibitor, single point]
Cc1noc2ncnc(N3CCCCC3)c12	inactive
Clc1cccc(N/N=C/c2ccc(N3CCOCC3)s2)c1	inconclusive [inhibitor, single point]
Cn1c(SCc2ccc(F)cc2)nnc1-c1cccs1	inconclusive [inhibitor, full curve]
CNc1nnc(-c2ccc(N(C)C)cc2)s1	active: 8.91 µM
CCCOc1ccc(C(=O)CCN2CCN(C(=O)OCC)CC2)cc1	inconclusive [inhibitor, full curve]
c1nc2nc(Nc3ccc(N4CCOCC4)cc3)nc(NC3CCCCC3)c2[nH]1	inconclusive [inhibitor, single point]
COc1ccc(-c2cc(C(F)(F)F)nc(SCC(=O)Nc3ccc4c(c3)OCO4)n2)cc1	inconclusive [inhibitor, single point]
CCc1ccc(N/C(N)=N/c2nc(CSc3ncccn3)cc(=O)[nH]2)cc1	inactive
O=S1(=O)CCN(Cc2ccccn2)CC1	inactive
O=C(Cc1c(F)cccc1Cl)Nc1ccccn1	inconclusive [activator, single point]
Cc1ccccc1-c1nc(-n2ccnc2)c2ccccc2n1	inactive
Cc1c(-c2ccccc2)oc2c(C(=O)OCC(=O)Nc3ccc(F)cc3)cccc2c1=O	inconclusive [activator, single point]
O=C1/C(=C\c2cccnc2)SC(=S)N1C1CCS(=O)(=O)C1 (centres undefined)	inconclusive [inhibitor, single point]
CCC(=O)Nc1nc2ccccc2n1Cc1ccc(C)cc1	active: 0.891 µM
COc1cccc(C(=O)Oc2ccc(/C=N/Nc3ccc(C(=O)O)cc3)cc2OC)c1	active: 2.24 µM
O=c1oc(-c2ccco2)nc2sc3c(c12)CCCCC3	inactive
Cc1c(C(=O)NCc2cccnc2)oc2ccc(S(=O)(=O)N3CCC4(CC3)OCCO4)cc12	inactive

Compound	Potency
Cc1cc(OC(C)C(=O)NCc2cccnc2)c2c(C)c(C)c(=O)oc2c1 (centres undefined)	inconclusive [inhibitor, single point]
Cc1cc(NC(=O)Cn2c(=O)n(Cc3ccccc3)c(=O)c3ccccc32)no1	inconclusive [inhibitor, single point]
CC(C)OC(=O)CSc1nc2cccnc2n1-c1ccc(F)cc1	inactive
COCc1cc(C)nc(N/N=C/c2ccc(Cl)c(Cl)c2)c1C#N	inactive
COc1ccccc1-c1ccc2ncnc(NC3CC3)c2c1	inconclusive [inhibitor, single point]
COc1ccccc1CNc1nc(=S)[nH]c2cc(OC)c(OC)cc12	inconclusive [inhibitor, single point]
Clc1cccc(Nc2ncnc3ccc(Br)cc23)c1	inactive
O=C(O)CCNc1ccc(NCCC(=O)O)c2c1C(=O)c1ccccc1C2=O	inconclusive [inhibitor, partial curve]
Cc1cc(C(=O)c2ccc(C(C)(C)C)cc2)c(NC(=O)CCl)s1	inconclusive [inhibitor, single point]
O=C(NCC(=O)N1CCCC(C(F)(F)F)C1)c1ccc(Oc2ccccc2)cc1 (centres undefined)	active: 12.6 µM
O=C(NCCCn1ccnc1)C1CCCN(S(=O)(=O)c2cc(Cl)ccc2Cl)C1 (centres undefined)	inconclusive [inhibitor, single point]
O=C(NCC1OCCc2ccccc21)c1ccc(NC(=O)c2ccc(Cl)cc2)cc1 (centres undefined)	inconclusive [inhibitor, single point]
O=C(O)CCNS(=O)(=O)c1ccc2c(c1)OCCCO2	inactive
CCc1cccc(NC(=O)c2ccc(Cn3nc(C)cc3C)o2)c1	inconclusive [activator, single point]
Clc1ncnc2scc(C3COc4ccccc4O3)c12 (centres undefined)	inconclusive [inhibitor, single point]
COC(=O)Cc1c(C)nc2nc(-c3ccc(OC)cc3)[nH]n2c1=O	inconclusive [inhibitor, single point]
Cc1ccc(N(C)S(=O)(=O)c2ccc(-c3cc(C)no3)s2)cc1	inactive
CCOC(=O)Cc1csc(NC(=O)c2sc3nc4cc(C)ccc4cc3c2N)n1	inconclusive [inhibitor, single point]
O=C(NCc1cccs1)C1CCCN(S(=O)(=O)c2ccc(Br)s2)C1 (centres undefined)	inactive
O=C(/C=C/c1ccco1)NC(=S)Nc1nc(-c2ccc(Cl)cc2)cs1	inconclusive [inhibitor, partial curve]
COCc1nnc(NC(=O)c2ccc(S(=O)(=O)N3CCCC3)cc2)o1	active: 11.2 µM
COc1ccc(S(=O)(=O)NCc2ccco2)cc1NC(=O)c1ccccc1	inconclusive [inhibitor, partial curve]
N#C/C(=C/c1ccc(N2CCOCC2)o1)c1nc2ccccc2[nH]1	inconclusive [inhibitor, single point]
O=C1Nc2ccccc2S/C1=C/Nc1cccc(Cl)c1	inconclusive [inhibitor, single point]
COc1ccc(CNc2nc(=S)[nH]c3cc(OC)c(OC)cc23)cc1	inconclusive [inhibitor, single point]

Compound	Potency
Cc1nc(-c2ccc(O)c(O)c2)cs1	inconclusive [inhibitor, single point]
COCCN1CCC(CNCc2cn(-c3cc(C)ccc3C)nc2-c2ccccc2)C1 (centres undefined)	inconclusive [inhibitor, single point]
COc1ccc(/C=C(/C(=O)c2cccs2)N2C=CC=CC2=C(C#N)C#N)cc1	active: 2.82 µM
Cc1cnn(Cc2ccccc2)c1N	inactive
O=C(NCc1ccc(F)cc1)C(=O)Nc1nc(C23CC4CC(CC(C4)C2)C3)cs1	active: 3.98 µM
O=C(CN1C(=O)C2C3CC(C(Br)C3Br)C2C1=O)N1CCN(Cc2ccccc2)CC1 (centres undefined)	inconclusive [inhibitor, single point]
COc1cc(OC)c(S(=O)(=O)N2CCOCC2)cc1S(=O)(=O)N1CCOCC1	inactive
CN(CC(=O)NC1CCCc2ccccc21)S(=O)(=O)c1cccs1 (centres undefined)	inconclusive [activator, single point]
O=C(CCN1CCCC1)Nc1ccccc1	inconclusive [inhibitor, single point]
O=C1c2ccccc2CC[C@H]1CNCCc1ccc(O)cc1	active: 11.2 µM
O=C(NC(=S)N1CCOCC1)c1ccc([N+](=O)[O-])cc1	active: 2.24 µM
O=C(/C=C/c1ccc2c(c1)OCO2)c1cccs1	inconclusive [inhibitor, single point]
Cc1ccc(-n2c(O)c(C=NCc3ccccn3)c3ccccc3c2=O)cc1	inconclusive [inhibitor, single point]
COc1cccc(C2NC(c3cccc(OC)c3O)C(C)C(=O)C2C)c1O (centres undefined)	active: 4.47 µM
CC(NC(=S)NC1CCCCC1)c1ccc(C(C)(C)C)cc1 (centres undefined)	active: 2 µM
CCOC(=O)n1c(=O)n(Cc2cccc(C)c2)c2ccccc21	inactive
Cc1noc(C)c1/C=N/Nc1ccccn1	inconclusive [inhibitor, full curve]
Nc1c(C(=O)N2CCCCC2)sc(=S)n1-c1ccccc1	inconclusive [inhibitor, partial curve, poor fit]
COc1cccc(-c2nc(NCc3ccccc3)c3ccccc3n2)c1O	inconclusive [inhibitor, partial curve]
O=C(CN(c1cccc(C(F)(F)F)c1)S(=O)(=O)c1ccc(Cl)c([N+](=O)[O-])c1)NCc1ccccc1	inconclusive [inhibitor, partial curve]
Oc1cc2c(cc1O)CN(C(=S)NCCc1ccc(Cl)cc1)CCC2	inconclusive [inhibitor, partial curve, poor fit]
O=C(Nc1nc2ccccc2s1)C1c2ccccc2Oc2ccccc21	inconclusive [inhibitor, single point]
Cc1ccc(Cn2nc(C)c(NC(=O)c3cc(-c4ccc5c(c4)OCO5)on3)c2C)cc1	inconclusive [inhibitor, partial curve]
CC(=O)Oc1ccc(N(C(C)=O)S(=O)(=O)c2ccc(C)cc2C)c2ccccc12	inconclusive [inhibitor, single point]
